Values joined by “and” are separate entries in the source; they are usually repeats but may differ in a detail not shown here. Identical values can stand only once. About 610 (0.55%) of roughly 110,000 compounds were called active. This list was built around the results that the source calls inconclusive (neither active nor inactive); the mix of calls is not that of the screen. Calls follow the shape of the dose curve; as a rule, active = well fitted inhibition curve with a large enough effect; inconclusive = small, poorly fitted or top-dose-only effect; inactive = no such curve, though single readings can be large or run the other way. Where the call is inconclusive, the potency comes from a doubtful curve fit.
molecular target: Polyunsaturated fatty acid lipoxygenase ALOX15B (Homo sapiens) (UniProt O15296); experiment: qHTS Assay for Inhibitors of 15-hLO-2 (15-human lipoxygenase 2); details: purified 15hLO-2, xylenol orange hydroperoxide absorbance; series mostly up to 57.1 µM; also: nearly all actives have a fitted effect of over 60% in size
Sequence of UniProt O15296 (O15296 whole entry, looked up): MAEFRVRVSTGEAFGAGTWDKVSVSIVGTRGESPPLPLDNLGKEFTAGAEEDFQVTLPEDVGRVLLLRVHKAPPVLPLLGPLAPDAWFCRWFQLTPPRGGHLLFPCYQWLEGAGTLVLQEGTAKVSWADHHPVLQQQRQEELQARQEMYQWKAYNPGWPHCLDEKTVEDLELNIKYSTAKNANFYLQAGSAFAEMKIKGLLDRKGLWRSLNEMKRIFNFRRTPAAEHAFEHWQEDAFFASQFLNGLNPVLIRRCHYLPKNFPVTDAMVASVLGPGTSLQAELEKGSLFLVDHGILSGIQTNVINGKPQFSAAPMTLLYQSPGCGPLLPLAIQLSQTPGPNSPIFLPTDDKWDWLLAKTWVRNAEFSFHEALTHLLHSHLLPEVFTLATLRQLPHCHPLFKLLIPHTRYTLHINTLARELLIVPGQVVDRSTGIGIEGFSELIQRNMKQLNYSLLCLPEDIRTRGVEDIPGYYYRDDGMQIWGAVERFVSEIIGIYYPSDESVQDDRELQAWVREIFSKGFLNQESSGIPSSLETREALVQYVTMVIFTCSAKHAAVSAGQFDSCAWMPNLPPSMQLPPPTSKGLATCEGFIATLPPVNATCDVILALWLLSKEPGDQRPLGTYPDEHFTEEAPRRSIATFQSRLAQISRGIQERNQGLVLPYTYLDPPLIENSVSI
Text: Assay Overview: NIH Molecular Libraries Screening Centers Network [MLSCN] NIH Chemical Genomics Center [NCGC] MLSCN Grant: MH081283-01A1 PI Name: Holman, T.R., University of California, Santa Cruz Human lipoxygenase 15hLO-2 is a member of the closely related lipoxygenase family of enzymes which catalyze the site-specific oxidation of arachidonic acid to various hormone precursor molecules and as such is a candidate for drug development in a variety of disease areas, such as cancer and inflammation. Inhibition of 15hLO-2 activity was screened by utilizing arachidonic acid as a substrate. The extent of hydroperoxide product formation was measured by a secondary chromogenic reaction in which xylenol orange (XO, Sigma-Aldrich, cat. number 39,818-7) reacts with the ferric ions produced from the reaction between the hydroperoxide and ferrous ions. The Fe(III)-XO complex is characterized with red-shifted absorbance at 560 nm. A purified preparation of human 15hLO-2 was supplied by Professor Ted Holman, University of California, Santa Cruz.
Assay Protocol: Buffer: 25 mM Hepes pH 7.5, 0.01% Triton X-100. Reagents/Controls: Buffer in columns 3 and 4 as negative control (no enzyme). Substrate solution: 45 uM arachidonic acid (Sigma-Aldrich, St. Louis, MO) final concentration dispensed throughout the plate. Enzyme: 50 nM 15hLO-2 final concentration in columns 1, 2, 5-48. Column 1 is neutral (100% activity). Column 2 contained pin-transferred titration of NDGA (nordihidroguaiaretic acid, Sigma-Aldrich, N 5023, top concentration 10 mM in DMSO, then 1:2 dilution in duplicate). (Dilution factor: 23 nL into 4 uL.) Chromogenic detection reagent (divalent iron/xylenol orange, Fe-XO): 200 uM xylenol orange plus 300 uM ferrous ammonium sulfate prepared freshly in 50 mM sulfuric acid. Assay Steps: Three uL of enzyme were dispensed to 1536-well Greiner black clear bottom plates. Compounds and controls (23 nL) were transferred via Kalypsys PinTool. The plates were incubated for 15 min at room temperature, and then 1 uL of substrate solution was added to start the reaction. After room temperature incubation for 90 minutes, 4 uL of Fe-XO solution was added to each well followed by a short spin (1000 rpm, 15 sec) and the plates were then incubated for 30 min. The absorbance at 405 and 573 nm were measured using ViewLux (Perkin-Elmer) High-throughput CCD imager and absorbance protocol settings. The 573-to-405 absorbance ratio was used to compute reaction progress.
% is scaled to controls: 0 for no effect and ±100 for the full control effect; potency is read from the fitted curve at half-maximal effect; tags tell the direction and shape of the fitted curve.

Which Potency does the source give for `Cc1cc(OCC(=O)OC(C)C)c2c3c(c(=O)oc2c1)CCCC3` here?
Its Potency is inconclusive: 0.199 µM [inhibitor, full curve, poor fit].

How did the Potency turn out when `CO[C@@H]([CH2][Hg])CN1C(=O)c2ccccc2S1(=O)=O.Cn1c(=O)c2nc[nH]c2n(C)c1=O` was run?
Its Potency is inconclusive: 7.94 µM [inhibitor, single point].

How did the Potency turn out when `C[C@@]12CC[C@H]3[C@H](CCC4=CC(=O)CC[C@H]43)[C@H]1CC[C@H]2OC1(O)C(=O)c2ccccc2C1=O` was run?
The Potency was inconclusive: 3.98 µM [inhibitor, partial curve].

How did the Potency turn out when `O=C1C=CC(=O)C(Cl)=C1` was run?
Its Potency is active: 11.2 µM.

With `CC1=NN(c2ccccc2)C(=O)C1/C=C1/C(=O)NC(=O)N(c2cccc(C)c2)C1=O` (stereo not drawn) as the compound, how does the Potency read?
Its Potency is inconclusive: 20 µM [inhibitor, partial curve].

Which Potency does the source give for `CC(C)c1cccc(O)c(=O)c1` here?
Its Potency is active: 12.6 µM.

With `C=C(C)C1CCC(C)=CC1c1c(O)cc(O)cc1CCCCC` (stereo not drawn) as the compound, how does the Potency read?
The Potency was inconclusive: 39.8 µM [inhibitor, single point].

`CC[n+]1c(/C=C/N(C)c2ccccc2)sc2ccc(Cl)cc21` was tested. Which Potency did it give?
The Potency was inconclusive: 20 µM [inhibitor, single point].

For `CSC([N-]/N=C/c1cccc(C)n1)=[S]=[Cu].CS[C@H]([S-])[N-]/N=C/c1cccc(C)n1`, which Potency is on record?
The Potency was active: 3.16 µM.

With `O=Nc1ccc(Nc2ccccc2)cc1` as the compound, how does the Potency read?
Its Potency is inconclusive: 20 µM [inhibitor, partial curve, poor fit].

Which Potency does the source give for `COCCCOc1ccnc(CS(=O)c2nc3ccccc3[nH]2)c1C` (stereo not drawn) here?
The Potency was active: 12.6 µM.

With `CCOC(=O)N(CC)c1ccc(C(O)(C(=O)OCC)C(F)(F)F)cc1` (stereo not drawn) as the compound, how does the Potency read?
The Potency was “inactive”.

How did the Potency turn out when `CS/C(N)=C(C#N)/C(C#N)=C(\N)SC` was run?
Its Potency is inconclusive: 8.91 µM [inhibitor, partial curve].

Which Potency does the source give for `O=C(O)c1ccccc1Nc1cccc(C(F)(F)F)c1` here?
The Potency was inconclusive: 31.6 µM [inhibitor, single point].

Which Potency does the source give for `CC(C)=CCCC1(C)C=Cc2c(O)c3c(c(CC=C(C)C)c2O1)OC12C(=CC4CC1C(C)(C)OC2(C/C=C(/C)C(=O)O)C4=O)C3=O` (stereo not drawn) here?
The Potency was inconclusive: 20 µM [inhibitor, single point].

For `N#CS.N=C=S.N=C=S.[Cu].[NH2-].[NH2-].[NH2-].[NH2-].c1ccc2ncccc2c1`, which Potency is on record?
Its Potency is inconclusive: 3.16 µM [inhibitor, single point].

How did the Potency turn out when `CCOP(=S)(OCC)SCn1c(=O)oc2cc(Cl)ccc21` was run?
The Potency was inconclusive: 20 µM [inhibitor, partial curve, poor fit].

For `NC(=O)CI`, which Potency is on record?
Its Potency is inconclusive: 39.8 µM [inhibitor, single point].

How did the Potency turn out when `CCN(CC)C(=O)c1ccc(NC(=O)Cn2nc(C)c3ccccc3c2=O)cc1` was run?
Its Potency is “inactive”.

How did the Potency turn out when `CC1COC2=C1C(=O)C(=O)c1c2ccc2c1CCCC2(C)C` (stereo not drawn) was run?
The Potency was inconclusive: 25.1 µM [inhibitor, partial curve].

With `O=C1N[C@@]2(CN3CCC2CC3)C(=O)N1CN(Cc1ccccc1)c1ccccc1` as the compound, how does the activity change, negative = inhibition read?
Its activity change, negative = inhibition is inactive: -9.77% [at 11.4 µM].

With `N#CC(C#N)=Cc1ccc(O)c(O)c1` as the compound, how does the Potency read?
The Potency was active: 12.6 µM.

How did the Potency turn out when `O[N+]1=CC=CCC1=S.On1ccccc1=S.[Zn]` was run?
The Potency was inconclusive: 15.8 µM [inhibitor, partial curve].

For `Cc1[nH]n(-c2ccccc2)c(=O)c1C(C[N+](=O)[O-])c1ccccc1Cl` (stereo not drawn), which Potency is on record?
The Potency was inconclusive: 10 µM [inhibitor, partial curve].

`CCOC(=O)c1c(C)n(Cc2ccc3c(c2)OCO3)c2ccc(O)cc12` was tested. Which Potency did it give?
Its Potency is inconclusive: 25.1 µM [inhibitor, partial curve].

`N#CC(C#N)=Cc1cc(O)c(O)c(O)c1` was tested. Which Potency did it give?
Its Potency is inconclusive: 5.01 µM [inhibitor, partial curve].

`O=C1C2CC=CCC2C(=O)N1SC(Cl)(Cl)Cl` (stereo not drawn) was tested. Which Potency did it give?
Its Potency is “inactive”.

How did the Potency turn out when `CN(C)c1ccc2c(c1)N=C(c1ccco1)OP2(=S)N1CCOCC1` (stereo not drawn) was run?
The Potency was “inactive”.

`CC(C)c1cc2c(c(O)c1O)[C@@]1(C(=O)O)CCCC(C)(C)[C@@H]1CC2` was tested. Which Potency did it give?
Its Potency is inconclusive: 0.355 µM [inhibitor, partial curve].

`CC1=NN(c2ccccc2)C(=O)C1/C=C1/C(=O)NC(=O)N(c2cc(C)cc(C)c2)C1=O` (stereo not drawn) was tested. Which Potency did it give?
The Potency was inconclusive: 15.8 µM [inhibitor, partial curve].

`Cc1ccc2c(c1)C1CN(C)CCC1N2C(=O)Cn1cnc2c1c(=O)n(C)c(=O)n2C` (stereo not drawn) was tested. Which Potency did it give?
The Potency was “inactive”.

For `Cc1ccc(-c2cn3c(=S)[nH]nc3s2)cc1`, which Potency is on record?
The Potency was inconclusive: 39.8 µM [inhibitor, single point].

How did the Potency turn out when `CN(C)c1ccc(N=Cc2c(O)n(CCC3=CCCCC3)c(=O)[nH]c2=O)cc1` was run?
The Potency was inconclusive: 12.6 µM [inhibitor, partial curve].

For `CN1C(=O)NC(=O)[C@]2(Cc3ccccc3N3CCN(c4ccccc4)CC32)C1=O` (stereo partly drawn), which Potency is on record?
The Potency was inconclusive: 12.6 µM [inhibitor, partial curve].

With `N#Cc1c(Cl)c(Cl)c(Cl)c(C#N)c1Cl` as the compound, how does the Potency read?
Its Potency is inconclusive: 31.6 µM [inhibitor, single point].

`O=C1CC(N2CC=C(c3ccc(F)cc3)CC2)C(=O)N1c1ccc(F)cc1` (stereo not drawn) was tested. Which Potency did it give?
The Potency was “inactive”.

Which activity change, negative = inhibition does the source give for `N=C(N)SCc1ccc(Cl)c2ccccc12` (tested in a mixture with another compound) here?
Its activity change, negative = inhibition is inactive: 10.9% [at 11.4 µM] and inactive: 6.78% [at 11.4 µM].

For `COc1cc(-c2ccc(N)c(OC)c2)ccc1N`, which Potency is on record?
Its Potency is inconclusive: 20 µM [inhibitor, partial curve, poor fit].

For `O=C1NC(=O)[C@]2(Cc3ccccc3N3CCN(c4ccccc4)CC32)C(=O)N1c1ccccc1` (stereo partly drawn), which Potency is on record?
The Potency was inconclusive: 15.8 µM [inhibitor, partial curve].

For `Oc1cc(Cl)c(Cl)cc1Cl`, which Potency is on record?
Its Potency is “inactive”.

With `O=[N+]([O-])c1ccc(-c2[se]c3ccccc3c2I)cc1` as the compound, how does the Potency read?
The Potency was inconclusive: 28.2 µM [inhibitor, single point].

How did the activity change, negative = inhibition turn out when `C[C@H](Br)CN(C[C@H](C)Br)c1ccc2c(c1)Cc1ccccc1-2` was run?
Its activity change, negative = inhibition is inactive: -5.74% [at 11.4 µM].

For `N#CC(C#N)=NNc1cccc(Cl)c1`, which Potency is on record?
The Potency was inconclusive: 20 µM [inhibitor, partial curve].
